Out of some 50,000 compounds screened, about 800 (1.6%) showed an effect of 50% or more. This is one part of the list.
biological target: Bcl-2-like protein 10 (Homo sapiens) (UniProt Q9HD36); assay: Phenotype converters, Bcl-B/TR3 peptide binding displacement, primary biochemical FP (AID 1240); details: GST-Bcl-B / FITC-TR3 peptide fluorescence polarization; stronger effect = higher value; compound at 3.75 mg/L;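 further: 0% = Bcl-B with tracer peptide and DMSO and 100% = tracer peptide lacking Bcl-B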
UniProt Q9HD36, sequence (Q9HD36 whole entry, looked up): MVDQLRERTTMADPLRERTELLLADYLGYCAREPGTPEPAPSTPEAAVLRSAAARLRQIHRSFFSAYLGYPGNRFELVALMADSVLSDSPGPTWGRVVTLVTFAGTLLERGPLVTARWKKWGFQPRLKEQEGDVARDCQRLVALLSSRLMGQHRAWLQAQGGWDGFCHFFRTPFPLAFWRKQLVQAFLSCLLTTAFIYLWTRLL

Going from `C#CCSc1nncn1C(=O)/C=C/c1cccs1` to `CCSc1nnc(NC(=O)CSc2ccccc2)s1`, the displacement rises from -18.2% to -6%.

Compared with `CCOC(=O)CSc1nc2ccc(N3C(=O)c4ccccc4C3=O)cc2s1`, `COc1ccc(NC(=O)CSc2nc3ccc(N4C(=O)c5ccccc5C4=O)cc3s2)c([N+](=O)[O-])c1` is lower in displacement: 6.2% for the first, 0.3% for the second.

Going from `Cc1[nH]n(-c2ccccc2)c(=O)c1N=Nc1ccccc1Br` to `COC(OC)c1cn(-c2ccccc2)nc1-c1ccccc1`, the displacement rises from -1.6% to 7.8%.

Compared with `COc1ccccc1N1CCN(C(=O)N2CCOCC2)CC1`, `COc1cc(OC)cc(C(=O)N2CCN(c3ccccc3)CC2)c1` is higher in displacement: -3.7% for the first, 6.5% for the second.

Compared with `Nc1ccc(-c2cn3ccsc3n2)cc1`, `O=c1nc(-c2ccc(Cl)cc2)c2cc(Cl)ccc2[nH]1` is lower in displacement: -0.9% for the first, -20.8% for the second.

First: CCOC(=O)Cc1nnc(Nc2ccc(OC)cc2)c2ccccc12
Second: CCOC(=O)c1c(NC(=O)Cc2ccc(OC)cc2)sc(C(=O)Nc2ccccc2OC)c1C
The displacement of the first is higher: 3.2% for the first, -3.7% for the second.

Compared with `Fc1ccc(/C=N/Nc2nnc(-c3ccccc3)c(-c3ccccc3)n2)cc1`, `Fc1ccc(C2CC(c3cccs3)=NN2c2nc(-c3ccccc3)cs2)cc1` (stereo unspecified) is lower in displacement: 5.2% for the first, -19.7% for the second.

Compared with `O=C(N/C(=C/c1ccc(-c2cccc([N+](=O)[O-])c2)o1)C(=O)N1CCCCC1)c1ccccc1`, `O=C(NC(Cc1ccc([N+](=O)[O-])cc1)C(=O)NC1CCCC1)OCc1ccccc1` (stereo unspecified) is higher in displacement: -10.5% for the first, -4% for the second.

First: CC(Sc1ccc(Cl)cc1)C(=O)Nc1cccc2ccccc12 (stereo unspecified)
Second: O=C(Nc1ccccc1C(=O)Nc1ccc(Cl)cc1)c1cccs1
The displacement of the first is lower: 1.6% for the first, 3% for the second.

Compared with `CC(=O)OCC12c3ccccc3C(COC(C)=O)(c3ccccc31)C1C(=O)N(c3ccccc3)C(=O)C12` (stereo unspecified), `O=C1C2ON(c3ccccc3)C(c3ccc(Br)cc3)C2C(=O)N1c1ccccc1C(F)(F)F` (stereo unspecified) is higher in displacement: -9.8% for the first, 12.8% for the second.

Going from `CC1(C)OC2(NC1=O)C1CC3CC(C1)CC2C3` (stereo unspecified) to `OC(COc1ccc(C23CC4CC(CC(C4)C2)C3)cc1)CN1CCN(c2ccc(F)cc2)CC1` (stereo unspecified), the displacement falls from -0.8% to -4%.

Going from `CCOc1ccc2nc(CCC(=O)O)[nH]c2c1` to `CCOc1ccc2nc(SC/C=C/c3ccccc3)sc2c1`, the displacement rises from -8.4% to -7.3%.

First: CCOC(=O)c1c(NC(=O)Cc2ccc(OC)cc2)sc(C(=O)Nc2cc(C(F)(F)F)ccc2Cl)c1C
Second: COc1ccc(NC(=O)c2c(-c3c(Cl)cccc3Cl)noc2C)c(OC)c1
The displacement of the first is lower: 7.8% for the first, 9.8% for the second.

Going from `Cc1ccc(NC(=O)c2cc3ccccc3cc2O)c(C)c1` to `Cc1cccc(C(=O)NCC(O)c2ccccc2)c1` (stereo unspecified), the displacement rises from -1.7% to 9%.

First: CCOC(=O)c1sc(C)c(C(N)=O)c1N
Second: CCOC(=O)c1c(C)sc(Sc2ccc(Br)cc2[N+](=O)[O-])c1OC(C)=O
The displacement of the first is higher: 7.5% for the first, -2.7% for the second.

Compared with `O=C(/C=C/c1ccc(F)cc1)NC(=S)Nc1ccccc1`, `O=C(/C=C\c1ccccc1)Nc1ccc(N2CCOCC2)cc1` is higher in displacement: -7.4% for the first, 4.5% for the second.

Going from `C/C(=N\N1C(=O)CN(Cc2ccccc2)C1c1ccccc1)c1ccccc1` (stereo unspecified) to `O=C(C(c1ccccc1)c1ccccc1)N1CCN(c2ccccc2)CC1`, the displacement rises from -2.1% to -1.9%.

First: O=C(c1ccccc1)N1CCCC2CCCCC21 (stereo unspecified)
Second: COc1ccc(-c2cc(C(=O)NC3CCCCCCC3)c3ccccc3n2)cc1OC
The displacement of the first is higher: 1.6% for the first, -6.8% for the second.

Going from `O=C(CN(Cc1ccccc1)S(=O)(=O)c1ccccc1)NCc1ccco1` to `CCCCN(/C=C/C(=O)c1ccccc1)S(=O)(=O)c1ccccc1`, the displacement falls from 4.5% to 1.6%.

First: O=C1CS/C(=N/N=C/c2c3ccccc3cc3ccccc23)N1
Second: Cc1c(/C=C/c2nc3ccccc3c(=O)n2C)c2ccccc2n1C
The displacement of the first is lower: -1.8% for the first, 3% for the second.

First: COc1ccc2nc(NC(=O)C3CCCN3S(=O)(=O)c3ccc(C)cc3)sc2c1 (stereo unspecified)
Second: COc1ccc(NC(=O)C2CCC2)cc1
The displacement of the first is higher: 11.9% for the first, -0.9% for the second.

Going from `O=C(O)/C=C\C(=O)Nc1ccc(OC(F)F)cc1` to `O=C(O)/C=C/C(=O)Nc1ccc(OC(F)(F)Cl)cc1`, the displacement falls from 8% to -9.1%.

Going from `COc1ccccc1NC(=O)c1ccc(CN(c2ccccc2)S(C)(=O)=O)cc1` to `CCOc1ccccc1NC(=O)CN(c1ccc(F)cc1)S(=O)(=O)c1ccccc1`, the displacement falls from 4.9% to -10.4%.

Going from `O=C(c1ccco1)N1CCc2ccccc21` to `CC1=NN(C(=O)Cc2ccccc2)C(O)(c2ccc(Br)cc2)C1` (stereo unspecified), the displacement falls from 17.9% to -1.1%.

First: COc1cccc(OC)c1C(=O)N(C)c1ccccc1
Second: CCN(C(=O)c1cc(Cl)ccc1OC)c1ccccc1C
The displacement of the first is higher: 0.7% for the first, -11.6% for the second.

First: CC(C)(NC(=O)NCc1ccccc1)c1cccc(C(C)(C)NC(=O)NCc2ccccc2)c1
Second: O=S(=O)(Nc1cccc(-c2nc3ccccc3[nH]2)c1)c1ccccc1
The displacement of the first is lower: -2% for the first, 12.1% for the second.

Going from `Cc1ccc(C(C)C)c(OCC(=O)Nc2cccc(S(N)(=O)=O)c2)c1` to `O=C(CSc1cc(Cl)ccc1Cl)Nc1cccc(Cl)c1`, the displacement falls from 18.5% to 11.5%.

First: CN(C)c1ccc(NC2=NS(=O)(=O)c3ccccc32)cc1
Second: NC(=O)c1ccc(NC(=O)c2ccccc2I)cc1
The displacement of the first is lower: 4.3% for the first, 24% for the second.

First: COc1ccc(CN2CCN(Cc3ccccc3C(F)(F)F)CC2)cc1
Second: COc1ccc(C2CC(C(F)(F)F)n3nc(C(=O)N4CCN(C)CC4)c(Cl)c3N2)cc1 (stereo unspecified)
The displacement of the first is lower: -1% for the first, 1.1% for the second.

Compared with `COc1ccc(Br)c(/C=N/NC(=O)CCCCCCC(=O)N/N=C/c2cc(OC)ccc2Br)c1`, `Oc1ccc(N=Cc2cc(Br)cc(Br)c2O)cc1` is lower in displacement: 24.3% for the first, 19.8% for the second.

Compared with `COc1cccc(N=Cc2ccc(O)cc2O)c1`, `COc1cccc(-c2nnc(-c3ccc(Br)o3)o2)c1` is lower in displacement: 9.2% for the first, -2.9% for the second.

Compared with `COc1cc(C2c3c(-c4ccccc4)n[nH]c3C(=O)N2c2ccccc2)ccc1O` (stereo unspecified), `COc1cc(/C=C2\C(=O)N(c3ccc(S(N)(=O)=O)cc3)N=C2C)ccc1OCc1ccccc1` is higher in displacement: 0.4% for the first, 18.3% for the second.

Compared with `CCCOC(=O)c1c(NC(=O)CCCC(=O)O)sc2c1CCC(C)C2` (stereo unspecified), `CCCNC(=O)c1c(NC(=O)c2cccc(C)c2)sc2c1CCCC2` is lower in displacement: 9.5% for the first, -5.6% for the second.

Compared with `CCOc1ccccc1N1C(=O)NC(=O)/C(=C/C=C/c2ccco2)C1=O`, `COc1ccc(/C=C2\C(=O)NC(=O)N(c3cccc(Br)c3)C2=O)cc1OC` is higher in displacement: 20.1% for the first, 120% for the second.

Going from `O=S(=O)(NCc1ccc(Cl)cc1)c1ccccc1` to `CCc1ccc(S(=O)(=O)Nc2c([N+](=O)[O-])ccc3ccccc23)cc1`, the displacement rises from 3% to 4.6%.

First: Cc1cc(NC(=O)c2sc3cc(F)ccc3c2Cl)no1
Second: Nc1c(C(=O)Nc2ccccc2)sc2nc3c(cc12)CCC3
The displacement of the first is lower: -3% for the first, 8.2% for the second.

First: CCCCOc1ccc(C=C2C(=O)NC(=S)NC2=O)cc1OC
Second: COc1cc(/C=N/n2nnnc2N)ccc1OCc1c(C)no[n+]1[O-]
The displacement of the first is lower: 12.4% for the first, 22.5% for the second.

Compared with `Cc1ccc(-n2c(C)cc(/C=N/NC(=O)c3ccc(CN4CCOCC4)cc3)c2C)cc1`, `COC(=O)c1ccc(-n2c(C)cc(/C=C3/SC(N)=NC3=O)c2C)cc1` is higher in displacement: -24.7% for the first, -17.2% for the second.

First: CC1CCN(C(=O)c2cc3nc(-c4ccccc4)cc(C(F)(F)F)n3n2)CC1
Second: Cc1ccc(-c2cc(C(F)(F)F)n3ncc(C(=O)N4CCN(C)CC4)c3n2)cc1
The displacement of the first is higher: 0% for the first, -8.8% for the second.

Compared with `O=C1CC(N2CCN(C/C=C/c3ccccc3)CC2)C(=O)N1c1cc(Cl)cc(Cl)c1` (stereo unspecified), `CC(C)(c1cc(Cl)cc(Cl)c1)N1C(=O)C2=C(CCCC2)C1=O` is lower in displacement: 5.8% for the first, 5.1% for the second.

Compared with `CCN1CCN(C(=O)c2ccc(F)cc2)CC1`, `CC(CNC(=O)c1ccc(Br)cc1)CN(C)C` (stereo unspecified) is higher in displacement: -13.5% for the first, 1.7% for the second.

First: NC(=S)N/N=C/c1cn(-c2ccccc2)nc1-c1ccc(Cl)cc1
Second: CC(c1ccccc1)c1nnc(NC(=O)Nc2ccc(Cl)cc2)s1 (stereo unspecified)
The displacement of the first is lower: -5.2% for the first, 2.3% for the second.

Compared with `CN(C)CCNC(=O)COc1ccc2ccccc2c1`, `O=C(COc1ccc(Br)cc1)Nc1ccccc1Cl` is higher in displacement: -5.3% for the first, 1.4% for the second.

First: C/C(O)=C/c1nc2ccc([N+](=O)[O-])cc2nc1/C=C(/C)O
Second: CC(=O)c1cccc(NC(=O)Cn2cnc([N+](=O)[O-])n2)c1
The displacement of the first is higher: 17.3% for the first, 10% for the second.

Going from `Cc1cc(C)nc(/N=C(/NC(=O)Nc2cccc(Cl)c2)Nc2ccccc2)n1` to `Cc1ccnc(NS(=O)(=O)c2ccc(NC(=O)c3ccccc3)cc2)n1`, the displacement rises from -1.7% to 4.2%.

First: O=C1C2C(c3ccc(Br)cc3)OC3(C(=O)c4ccccc4C3=O)C2C(=O)N1c1cccc([N+](=O)[O-])c1 (stereo unspecified)
Second: Cc1ccccc1NC(=O)/C=C/c1ccc([N+](=O)[O-])cc1
The displacement of the first is higher: 13.2% for the first, -5.6% for the second.

Going from `COCCCN1C(=O)c2ccc3c4c(ccc(c24)C1=O)CC3` to `Cc1cccc(C)c1OC(=O)C(C)N1C(=O)c2ccccc2C1=O` (stereo unspecified), the displacement falls from 6.1% to 1.2%.

Going from `CCOC(=O)CN(CP(=O)(OCC)OCC)CP(=O)(OCC)OCC` to `CCOC(=O)C1=C(C)N=c2s/c(=C\c3ccc(N(C)C)o3)c(=O)n2C1c1ccc(OCC)cc1` (stereo unspecified), the displacement rises from -4.9% to -1.2%.

`COCCOC(=O)C1=C(C)NC2=C(C(=O)CCC2)C1c1ccc(Cl)c([N+](=O)[O-])c1` (stereo unspecified) and `COc1cc(NC(=O)COc2cccc(Cl)c2)c(OC)cc1Cl` are the same in displacement: -7.8% for the first, -7.8% for the second.

Compared with `O=C(/C=C\Nc1ccc2[nH]ncc2c1)c1ccc(Br)cc1`, `CC(=O)Nc1ccccc1NC(=O)c1cccc(Br)c1` is lower in displacement: 23% for the first, 3.9% for the second.

First: O=C(N/N=C/c1ccc(O)c(O)c1)c1ccccn1
Second: CCc1[nH]nc(C(=O)N/N=C/c2cccnc2)c1C
The displacement of the first is higher: 5.7% for the first, -21.3% for the second.

Compared with `O=C(Nc1ccccc1Cl)c1ccccc1Br`, `CCCCC/C=C/C(=O)Nc1cccc2ccccc12` is higher in displacement: 0.8% for the first, 9.2% for the second.

Going from `Nc1cc(=O)[nH]c(SCc2ccc(Cl)cc2Cl)n1` to `Cc1ccc(-c2noc(COc3ccc(Cl)cc3C)n2)cc1`, the displacement rises from -27% to -10.7%.

Compared with `O=C(Nc1nc2ccccc2n1Cc1ccc(Cl)cc1)c1ccc(Cl)cc1`, `O=C(NC(=S)Nc1ccc(-c2nc3ncccc3o2)cc1)c1ccco1` is higher in displacement: 6.4% for the first, 112% for the second.

Compared with `CCN(CC)CCN1C(=O)C(O)=C(C(=O)/C=C/c2ccccc2)C1c1ccc(OC)cc1` (stereo unspecified), `CSCCC(/C(O)=C(\C#N)c1nc2ccccc2[nH]1)N1C(=O)c2ccccc2C1=O` (stereo unspecified) is lower in displacement: 5.2% for the first, -3.7% for the second.

In the case of `O=S(=O)(Nc1cccnc1)c1ccc(Br)c2ccccc12`, the displacement was -7.4%.
